Reference: the RNAGym collection of RNA variant scans (doi:10.1093/nar/gkz1192)
Read counts are not given, so values of variants with three or more changes are uncertain.

B1: CPEB3 Ribozyme (parent)
chain: UAACAGGGGGCCACAGCAGAAGCGUUCACGUCGCAGCCCCUGUCAGAUUCUGGUGAAUCUGCGAAUUCUGCUGUAUAUCUC

Variants of: B1
Test: self-cleavage, relative activity (ratio to wild type); higher = more cleavage; in vitro, sequencing
Method in brief: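 CPEB3 self-cleaving ribozyme mutant libraries were made by rounds of error-prone PCR, barcoded, and transcribed in vitro with T7 RNA polymerase for 5 hours at 37°C. Cleavage occurred during transcription and a 15 min DNase I step before EDTA stop. RNAs were reverse transcribed with template switching and Illumina-sequenced, with DNA sequencing mapping barcodes to variants. Relative activity is the variant's cleaved/total read fraction divided by wild type's (minimum 5 reads), averaged across three batches.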
With UAACAGGGGACCACAGCAGAAGCGUUCACGUCGCAGCCCCCGCCAGAUUCUGGUGAAUCUGCGAAUUCUGCUGUAUAUCUC [G10A U41C U43C] the self-cleavage was 0.06.
Work on UAACAGGGGACCACAGCAGAAGCGUUCACGUCGCAGCCCCUGUCAGACCCUGGUGAAUCUGCGAAUUCUGCUGUAUAUCUC [G10A U48C U49C] yielded a self-cleavage of 0.17.
With UAACAGGGGCCCACAGCAGAAGCGUUCACGUCGCAGCCCCUGUCAGAUACUGGUGAAUCUGCGAAUUCUGCAGUAUACCUA [G10C U49A U72A U78C C81A] the self-cleavage was 0.03.
In the case of UAACAGGGGCCCACAGCAGAAGCGGCCACGUCGCAGCCCCUGUCAGGUCCUGGUGAAUCUGCGAAUUCUGCUGUAUAUCUC [G10C U25G U26C A47G U49C], the self-cleavage is reported as 0.18.
In the case of UAACAGGGGACCACAGCAGAAGCGUUCAUGUCGCUGCCCCUGUCAGAUUCUGGUGAAUCUGCGGAUUCUACUGUAUACCUC [G10A C29U A35U A64G G70A U78C], the self-cleavage is reported as 0.03.
In the case of UAACAGGGGCCCUCAGCAGAAGCGUUCACGUCGCAGCCCCUGUCAGAUUCUGGUGAAUCUGCGAGUUCUGCUGUAUAUCUC [G10C A13U A65G], the self-cleavage is reported as 0.05.
UAACAGGGGCCCAUAGCAGAGGCGUUCACGUCGCAGCCCCUGUCAGAUUCAGGUGAAUGUGCGAAUUCUGCUGUAUUUCUC [G10C C14U A21G U51A C59G A77U] gave a self-cleavage of 0.17.
UAACAGGGGCCCACAGCAGAAGCGUUCACGUCGCAGCCCCUGUCAGAUCCUGGUGAAUCUGCGAGUCCUGCUGUAUAUCUC [G10C U49C A65G U67C] gave a self-cleavage of 0.12.
Variant UAACAGGGGACCACAGCAGAAGCGUUCACGUCACAGCCCCUGUCAGUUUCUGGUGAAUCUGCGAACUCUGCUGUAUAUCUC [G10A G33A A47U U66C] has a self-cleavage of 0.11.
In the case of UAACAGGGGCCCACAGCAGGAGCGUUCACGUCGCAGCCCCUGUCAGACUCUGGUGAAUCAGCGAAUUCUGCUGUAAAUCUC [G10C A20G U48C U60A U76A], the self-cleavage is reported as 0.14.
For UAACAGGGGACCACAGCAGAAGCGUUCACGUCGCAGCCCCUGUCAGAUUCUGGCGAAUCUGCGAACUCUGCUGUAUAACUC [G10A U54C U66C U78A], the self-cleavage was 0.13.
With UAACAGGGGCCCACAGCAGAAGCGUUCACGUCGCUGCCCCUGUCAGAUUCUGGUGAAUCUGCGAAUUCUGCUGUAUAUCCC [G10C A35U U80C] the self-cleavage was 0.06.
In the case of UAACAGGGGACCACAGCAGAAGCGUUCACGUCGCAGCCCCAGUCAAAUUCAGGUGAGUCCGCGGAUUCUGCUGUAUAUCUC [G10A U41A G46A U51A A57G U60C A64G], the self-cleavage is reported as 0.04.
For UAACAGGGGACCACAGCAGAAGCGUUCAUGUCGCAGCCCCUGUCAGAUUCUGGUGGAUCUGCGAAUUCUGCUGUAUAUCUC [G10A C29U A56G], the self-cleavage was 0.18.
Work on UAACAGGGGACCACAGCAGAAGCGUUCACGUCGCAGCCCCUGUCAGACUCUGGUGAAUCUGCGUAUUCUGCUGUAUAUCUC [G10A U48C A64U] yielded a self-cleavage of 0.05.
With UAACAGGGGCCAGCAGCAGAAGCGUUCACGUCGCAGCCCCUGUCAGAUUCUGGUGAGUCUGCGAAUUCUGCUGUAUGUCUC [G10C C12A A13G A57G A77G] the self-cleavage was 0.09.
Variant UAACAGGGGCCCACGGCAGAAGCGUUCACGUCGCAGCCCCUGUCAGAUUCUGGUGAAUCUGCAAAUUCUGCUGUAUAUCUC [G10C A15G G63A] has a self-cleavage of 0.08.
UAACAGGGGACCACAGCAGAAGCGAUCACGUCGCAGCCCCUGCCUGAUUCUGGAGAAUCUGCGAAUUCUGCUGUAUAUCUC [G10A U25A U43C A45U U54A] showed a self-cleavage of 0.05.
For UAACAGGGGACCACAGCAGAAGCGUUCACGUCGGAGCCCCUGUCAGAUUCUGGCGAAUCCGCGAAUUCUCCUGUAUAUCUC [G10A C34G U54C U60C G70C], the self-cleavage was 0.06.
Work on UAACAGGGGUCCUCAGCACAAGCGUACACGUCGCAGCCCCUGCCAGAUUCUGGCGAAUCUGCGAAUACUGCUGUAUAUCUC [G10U A13U G19C U26A U43C U54C U67A] yielded a self-cleavage of 0.04.
Variant UAACAGGGGCCCACAGCAGAAGCGUUCACGUCGCAGCCCCUGUCAGACUCUGGUGGAUCUGCGAUUUCUGCUGUAUAUCUC [G10C U48C A56G A65U] has a self-cleavage of 0.07.
In the case of UAACAGGGGCCCACAUCAGAAGCGUUCACGUCGCAGCCCCUGUCAGAUUCUGGUGUAUCUGCGAAUUCUGCUGUAUAUCUC [G10C G16U A56U], the self-cleavage is reported as 0.06.
Work on UAACAGGGGACCACAGCAGAAGCGUUCACGUCGCAGCCCCCGUCAGAUUCUGGUGAACCUGCGAAUUCUGCCGUAUAUCUC [G10A U41C U58C U72C] yielded a self-cleavage of 0.08.
Work on UAACAGGGGACCACAGCAGAAGCGUUCACGACGCAGCCCCUGUCAGAUUCUGGUGAAUCUGCGAAUUCUGCUGUAUUUCUC [G10A U31A A77U] yielded a self-cleavage of 0.23.
In the case of UAACAGGGGACCACAGCAGAAGCGUUUACGUCGCGGCCCCUGUCAGAUUCUGGUGAAUCUGCGAACUCUGCUGUAUAUCUC [G10A C27U A35G U66C], the self-cleavage is reported as 0.6.
With UAACAGGGGCCCACAGCAGAAGCGUUCACGUCGCAACCCUUGUCAGAUCCUGGUGAAUCUGCGAAUUCUGCGGUAUAUCUC [G10C G36A C40U U49C U72G] the self-cleavage was 0.06.
UAACAGGGGCCCACAGCAGAAGAGUUCACGUCGCAGCCCCUGUCAGAUUCUGGUGAAUCUGCGAACUCUGCUGUAUAUCUC [G10C C23A U66C] showed a self-cleavage of 0.14.
For UAACAGGGGACCACAGCAGAAGCGUUCACGUCGCAGCCCCUGUCAGAUUCUGGUGAAUCAGCGGAUUCUGCCGUAUAUCUC [G10A U60A A64G U72C], the self-cleavage was 0.36.
For UAACAGGGGACCACACCAGAAGCGUUCACGUCGCAGCCCCUGUCGGAUUCCGGUGAAUCUGCGAAUUCUGCUGUAUAUCUC [G10A G16C A45G U51C], the self-cleavage was 0.14.
Variant UAACAGGGGCCCACAGCAGAAGCGUUCACGUCACAGCCCCUGCCAGAUUCUGGUGAAUCUGCGAAUUCUGCUGUAUAUCUC [G10C G33A U43C] has a self-cleavage of 0.12.
Work on UAACAGGGGACCACAGCAGAAGCGUUCACGUCGCAGCCCUUGUCAGAUCCUGGUGAAUCUGCGAAUUCUGCUGUAUAUCUC [G10A C40U U49C] yielded a self-cleavage of 0.06.
With UAACAGGGGACCACAGCAGAAGCGUUCACGACGCAGCCCCUGUCGGAUUCUGGUGAAUCUGCGAAUUCAGCUGUAUAUCUC [G10A U31A A45G U69A] the self-cleavage was 0.11.
UAACAGGGGACCACAGCAGAAGCAUUCACGUCGCAGCCCCUGUCAGAUUCUGGGGAAUCAGCGAAUUCUGCUGUAUACCUC [G10A G24A U54G U60A U78C] gave a self-cleavage of 0.05.
With UAACAGGGGACCACAGCAGAAGCGUUCACGUCGCAGCCCCUGUCAGACUCUGGUGAAUCUGCGAAUUCUGCUGUAUACCUC [G10A U48C U78C] the self-cleavage was 0.12.
